3 molecules from patent publication US12116397B2, “IL-IR-I binding polypeptide” (Swedish Orphan Biovitrum AB (publ), priority 2017, dated 2024) can be followed below.

One test has as its target T1, human biotinylated FcRn (Homo sapiens, UniProt P55899).
T1 construct: purchased Immunitrack ApS
In words: Biacore FcRn affinity analysis. Format: binding. The note with it: five concentrations 2.5-200 nM.

The target in the next test is T2, FCγR3A (Homo sapiens, UniProt P08637).
T2 construct: purchased Sino Biological
T2 sequence (P08637 17-254): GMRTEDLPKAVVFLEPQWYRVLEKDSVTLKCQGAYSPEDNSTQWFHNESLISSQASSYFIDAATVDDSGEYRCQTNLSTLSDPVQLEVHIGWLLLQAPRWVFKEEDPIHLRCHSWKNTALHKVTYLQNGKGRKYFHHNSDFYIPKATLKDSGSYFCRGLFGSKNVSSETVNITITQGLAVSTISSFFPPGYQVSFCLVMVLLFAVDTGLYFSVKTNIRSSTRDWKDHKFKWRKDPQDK
In words: FCγR3A affinity analysis by Biolayer Interferometry. It is filed as binding. As to the method: The affinity towards FCγR3A was analysed with Biolayer Interferometry essentially as disclosed in Example 10, with the exception that biotinylated FCγR3A (Sino Biological) was immobilized on a Streptavidin biosensor for kinetics (Pall/Fortebio) and the proteins were tested using concentrations of 100 and 1000 nM. In addition Human IgG (GammaNorm, Octapharma) was used as control in the measurements.
For orientation: BLI is a label-free optical method that tracks binding on a fibre tip over time.

Changes are numbered by the printed parent chain. In names and notes the source's numbering stands.

T1 sequence (P55899 24-297 limits assumed): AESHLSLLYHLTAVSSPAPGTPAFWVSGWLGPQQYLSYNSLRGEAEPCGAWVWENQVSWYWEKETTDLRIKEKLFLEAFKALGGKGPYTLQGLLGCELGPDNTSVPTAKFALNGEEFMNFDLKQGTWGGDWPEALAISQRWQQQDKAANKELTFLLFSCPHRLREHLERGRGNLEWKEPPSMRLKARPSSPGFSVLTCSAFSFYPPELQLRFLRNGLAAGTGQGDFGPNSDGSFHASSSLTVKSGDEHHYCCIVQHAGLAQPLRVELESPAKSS
T1 sequence (P61769 21-119 partner): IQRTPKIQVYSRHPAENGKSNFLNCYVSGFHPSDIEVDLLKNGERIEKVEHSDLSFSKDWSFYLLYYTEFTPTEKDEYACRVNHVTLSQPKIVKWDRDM

B1: PS10654: fusion of Z18754 with mutated IgG1 Fc, N297A and LS mutations (protein)
chain: AEAKYAKEVEEIQMEIFRLPNLTRRQYTAFIRKLLDDPSQSSELLSEAKKLSESQAPKASGGGGSGGGGSDKTHTCPPCPAPELLGGPSVFLFPPKPKDTLMISRTPEVTCVVVDVSHEDPEVKFNWYVDGVEVHNAKTKPREEQYASTYRVVSVLTVLHQDWLNGKEYKCKVSNKALPAPIEKTISKAKGQPREPQVYTLPPSRDELTKNQVSLTCLVKGFYPSDIAVEWESNGQPENNYKTTPPVLDSDGSFFLYSKLTVDKSRWQQGNVFSCSVLHEALHSHYTQKSLSLSPGK
modifications: LS mutations; Engineered IL-1R-I binding polypeptide
As to B1, the results for the “affinity towards FcRn (order / change)” value with human biotinylated FcRn (listed as SEQ ID NO 1735) and in the test with human biotinylated FcRn (listed as SEQ ID NO:1735) were “SEQ ID NO 1735>SEQ ID NO 1736>SEQ ID NO 1734=SEQ ID NO 1737” and “greatest increase”, respectively.

B2: PS10655: fusion of Z18754 with mutated IgG1 Fc, N297A and YTE mutations (protein)
chain: B1 chain with M102Y, S104T, T106E, L278M, S284N
modifications: YTE mutations; Engineered IL-1R-I binding polypeptide
On to B2, for which the “affinity towards FcRn (order / change)” value in the test with human biotinylated FcRn (listed as SEQ ID NO 1736) is given as “SEQ ID NO 1735>SEQ ID NO 1736>SEQ ID NO 1734=SEQ ID NO 1737”; with human biotinylated FcRn (listed as SEQ ID NO:1736) it was “increased affinity”.

B3: PS10656: fusion of Z18754 with IgG4 Fc, S228P mutation in the hinge region (protein)
chain: AEAKYAKEVEEIQMEIFRLPNLTRRQYTAFIRKLLDDPSQSSELLSEAKKLSESQAPKASGGGGSGGGGS[sequence of human IgG4 Fc with S228P (EU numbers) omitted]
modifications: Engineered IL-1R-I binding polypeptide
notes: fusion of Z18754 with IgG4 Fc, S228P mutation in the hinge region
For the molecule B3, the figures for the “binding to FCγR3A” value with FCγR3A (at 100 nM) and with FCγR3A (at 1000 nM) were “no binding” and “weak binding”, respectively. Also, the “binding/affinity towards FCγR3A (conclusion)” value with FCγR3A (mutated Fc portions) is recorded as “low affinity”. Further, in the test with human biotinylated FcRn, the “affinity towards FcRn (order / change)” value was “SEQ ID NO 1735>SEQ ID NO 1736>SEQ ID NO 1734=SEQ ID NO 1737”.
